This is one part of the list. The full chains were built here from the parent and the listed change. Values near 0.05 are background.
B1: TEV protease; numbered along this chain (parent)
chain: MGESLFKGPRDYNPISSSICHLTNESDGHTTSLYGIGFGPFIITNKHLFRRNNGTLVVQSLHGVFKVKDTTTLQQHLVDGRDMIIIRMPKDFPPFPQKLKFREPQREERICLVTTNFQTKSMSSMVSDTSCTFPSGDGIFWKHWIQTKDGQCGSPLVSTRDGFIVGIHSASNFTNTNNYFTSVPKNFMELLTNQEAQQWVSGWRLNADSVLWGGHKVFMVKPEEPFQPVKEATQL

Variants of: B1
Assay: raw area under fraction-flipped curve 0-4 h after induction (AUC4h, not background-subtracted), DNA-recorder readout of cleavage of the substrate (dimensionless); higher = more cleavage of the substrate by the protease variant
Conditions: temperature: 34 °C; time window: 0-4 h after rhamnose induction
Method: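 In vivo DNA recorder in E. coli TOP10(DE3) ΔrhaA at 34 °C. Each TEVp single-site mutant (parent TEVp 0) is paired with a single-site variant of the 7-mer TEVs (canonical ENLYFQ|S). The substrate sits between flexible linkers in a Bxb1-sfGFP-TEVs-SsrA fusion, so cleavage stabilises Bxb1 and speeds flipping of a recombination array, read by NGS. The value is the raw area under the fraction-flipped curve over 0-4 h after rhamnose induction (AUC4h), with ≥20 reads per time point. It is not background-subtracted; inactive controls average about 0.047.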
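Further: Bxb1 expression induced with 0.2% (w/v) L-rhamnose at OD600 near 0.5, cultures sampled hourly, flipped fraction per protease–substrate barcode pair counted by paired-end Illumina sequencing.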

Row | Variant | area with substrate ENLYFQA | area with substrate ENLYFQC | area with substrate ENLYFQF | area with substrate ENLYFQI | area with substrate ENLYFQK | area with substrate ENLYFQM | area with substrate ENLYFQN | area with substrate ENLYFQS | area with substrate ENLYFQT | area with substrate ENLYFQV | area with substrate ENLYFQE | area with substrate ENLYFQG | area with substrate ENLYFQH | area with substrate ENLYFQL | area with substrate ENLYFQP | area with substrate ENLYFQQ | area with substrate ENLYFQW | area with substrate ENLYFQY | area with substrate ENLYFQD | area with substrate ENLYFQR
1 | F117G | 0.0625 | 0.0842 | 0.0729 | 0.0588 | 0.0583 | 0.0917 | 0.0871 | 0.0957 | 0.0581 | 0.0467 | – | – | – | – | – | – | – | – | – | –
2 | H143K | 0.0482 | 0.0507 | – | – | 0.0565 | 0.0695 | 0.055 | 0.0576 | 0.0651 | 0.0535 | 0.0723 | 0.0581 | 0.0485 | 0.05 | 0.0548 | 0.0495 | 0.0523 | 0.049 | – | –
3 | G37E | 0.0445 | 0.0395 | 0.043 | 0.0287 | 0.0437 | 0.0476 | – | 0.0546 | 0.0444 | 0.0429 | – | 0.0742 | 0.0378 | 0.0329 | 0.0898 | 0.0662 | – | – | 0.0516 | 0.0478
4 | K221D | 0.0744 | – | 0.048 | 0.0644 | 0.0586 | – | 0.0834 | 0.104 | 0.0624 | 0.0511 | – | 0.0883 | – | 0.0632 | 0.0693 | – | 0.0512 | 0.0628 | 0.0594 | 0.0594
5 | R10N | 0.0868 | 0.103 | – | 0.0553 | – | 0.0622 | 0.0772 | 0.0856 | 0.0384 | – | – | – | 0.0692 | 0.0567 | 0.0294 | – | – | 0.0743 | – | 0.0625
6 | G202M | 0.0821 | 0.0697 | – | – | 0.0551 | 0.0606 | 0.0783 | 0.076 | 0.0428 | 0.0291 | – | 0.0747 | 0.0332 | – | – | 0.0555 | – | – | – | –
7 | I139M | 0.112 | 0.105 | – | 0.0591 | 0.0654 | 0.0811 | 0.0945 | 0.116 | 0.078 | 0.0527 | – | 0.102 | 0.0782 | 0.0652 | 0.0505 | 0.0538 | – | 0.0768 | – | 0.0491
8 | R81L | 0.101 | 0.102 | 0.0636 | – | 0.0674 | 0.0853 | 0.066 | 0.0998 | 0.0639 | – | – | 0.0776 | – | 0.0481 | 0.0633 | 0.0594 | 0.064 | – | – | 0.0532
9 | R51L | 0.0838 | 0.0948 | 0.0794 | 0.0386 | 0.0597 | 0.0884 | 0.075 | 0.108 | – | – | – | 0.0912 | 0.0777 | – | – | – | – | 0.0794 | 0.0691 | –
10 | N175Y | 0.0827 | 0.0991 | – | – | 0.0583 | 0.063 | – | 0.0818 | – | 0.0588 | – | 0.0726 | 0.0685 | 0.0506 | – | – | 0.0519 | 0.0688 | 0.039 | 0.0598
11 | D149N | 0.0896 | 0.116 | 0.0587 | 0.0538 | 0.0638 | 0.0954 | – | 0.0992 | 0.0587 | 0.0547 | – | 0.0777 | 0.0938 | 0.0379 | 0.0594 | 0.0589 | 0.0706 | 0.0829 | – | 0.0658
12 | F173S | 0.0729 | – | – | 0.0562 | 0.0907 | 0.073 | – | 0.0898 | 0.0566 | 0.0657 | – | 0.0681 | – | 0.0574 | 0.0604 | – | 0.0638 | – | 0.0644 | –
13 | V220A | 0.102 | 0.163 | – | – | 0.0683 | 0.0953 | – | 0.107 | – | – | 0.0624 | – | 0.0961 | 0.0684 | 0.0761 | – | 0.0661 | 0.0632 | 0.0753 | 0.0486
14 | I85V | 0.0793 | 0.098 | 0.0803 | 0.0451 | – | 0.0964 | 0.0775 | 0.0895 | – | – | – | 0.0797 | – | 0.0596 | 0.0782 | 0.0748 | 0.0629 | 0.0636 | 0.0711 | –
15 | N53T | 0.0743 | – | – | 0.0646 | – | 0.0844 | 0.0734 | 0.0883 | 0.0639 | 0.0699 | – | 0.0321 | 0.0748 | 0.0709 | – | – | 0.0554 | – | – | –
16 | N53R | 0.0829 | – | 0.0696 | 0.0758 | 0.045 | 0.0868 | 0.0708 | 0.0853 | – | 0.0636 | – | 0.0729 | 0.0889 | 0.0654 | – | – | 0.0589 | – | 0.0785 | 0.0543
17 | H47I | 0.0526 | 0.0561 | 0.0711 | 0.0623 | 0.0628 | – | 0.0533 | 0.0604 | 0.0538 | 0.0556 | 0.0581 | – | 0.0667 | 0.0565 | 0.016 | – | 0.0487 | 0.0671 | 0.0638 | 0.0648
18 | G35P | 0.0341 | – | – | 0.0525 | – | 0.0427 | 0.0399 | 0.0467 | – | – | – | 0.0287 | 0.0535 | 0.0367 | – | – | – | – | – | 0.0647
19 | D27T | 0.0557 | – | – | 0.0508 | 0.0598 | – | – | 0.0852 | 0.0663 | – | – | – | 0.0754 | 0.0637 | – | – | 0.0668 | – | – | –
20 | T44Y | 0.04 | 0.0451 | 0.0469 | 0.0475 | 0.0567 | 0.0403 | 0.0425 | 0.0441 | – | – | – | 0.0368 | 0.0457 | 0.0386 | 0.0416 | – | 0.0437 | 0.0378 | 0.043 | 0.0523
21 | G2E | 0.0889 | 0.121 | – | 0.0649 | 0.0699 | – | – | 0.0972 | – | 0.0499 | 0.0688 | – | – | 0.0657 | – | 0.0512 | – | – | – | 0.0726
22 | F140E | 0.0605 | 0.0673 | – | 0.0595 | 0.064 | 0.0621 | 0.0617 | 0.0627 | – | 0.063 | 0.0729 | 0.0563 | – | 0.0636 | – | – | 0.0462 | 0.0242 | – | 0.056
23 | K68E | 0.0901 | 0.123 | – | – | 0.0671 | 0.0846 | 0.0815 | 0.112 | 0.0493 | – | – | 0.102 | 0.0865 | 0.0579 | 0.0585 | – | 0.0691 | 0.0843 | 0.0838 | 0.0537
24 | L211V | 0.0921 | 0.108 | 0.113 | 0.0549 | 0.0709 | 0.0785 | 0.0892 | 0.105 | 0.0778 | 0.0597 | – | 0.0852 | – | – | – | – | 0.0651 | 0.0631 | – | –
25 | Y12D | 0.0966 | 0.102 | 0.0594 | 0.0557 | 0.0743 | 0.0955 | – | 0.1 | 0.0597 | 0.0606 | – | 0.0931 | 0.0778 | 0.0601 | 0.0629 | – | 0.076 | 0.0756 | – | 0.062
26 | I164T | 0.0875 | 0.0771 | – | 0.0592 | – | 0.0652 | 0.053 | 0.0771 | 0.0538 | 0.054 | – | 0.0813 | 0.0649 | 0.0552 | – | – | 0.0665 | 0.0593 | – | 0.0586

Source: the supplement of paper PMC12217912
